Results reported in PMC4336329 (PLoS ONE, 2015).
Among all 310,000 compounds or so, about 14,000 (4.5%) showed an effect of 50% or more. The effect is printed as a negative number. This is one part of the list.
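Also: peak tail current of the secondary pulse compared with the same well before compound.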

These compounds were tested against human ether-à-go-go-related gene (hERG) potassium channel (human, UniProt Q12809) (assay: primary screen, population patch clamp on CHO cells stably expressing hERG).
Sequence of human ether-à-go-go-related gene (hERG) potassium channel (Q12809 whole entry, looked up): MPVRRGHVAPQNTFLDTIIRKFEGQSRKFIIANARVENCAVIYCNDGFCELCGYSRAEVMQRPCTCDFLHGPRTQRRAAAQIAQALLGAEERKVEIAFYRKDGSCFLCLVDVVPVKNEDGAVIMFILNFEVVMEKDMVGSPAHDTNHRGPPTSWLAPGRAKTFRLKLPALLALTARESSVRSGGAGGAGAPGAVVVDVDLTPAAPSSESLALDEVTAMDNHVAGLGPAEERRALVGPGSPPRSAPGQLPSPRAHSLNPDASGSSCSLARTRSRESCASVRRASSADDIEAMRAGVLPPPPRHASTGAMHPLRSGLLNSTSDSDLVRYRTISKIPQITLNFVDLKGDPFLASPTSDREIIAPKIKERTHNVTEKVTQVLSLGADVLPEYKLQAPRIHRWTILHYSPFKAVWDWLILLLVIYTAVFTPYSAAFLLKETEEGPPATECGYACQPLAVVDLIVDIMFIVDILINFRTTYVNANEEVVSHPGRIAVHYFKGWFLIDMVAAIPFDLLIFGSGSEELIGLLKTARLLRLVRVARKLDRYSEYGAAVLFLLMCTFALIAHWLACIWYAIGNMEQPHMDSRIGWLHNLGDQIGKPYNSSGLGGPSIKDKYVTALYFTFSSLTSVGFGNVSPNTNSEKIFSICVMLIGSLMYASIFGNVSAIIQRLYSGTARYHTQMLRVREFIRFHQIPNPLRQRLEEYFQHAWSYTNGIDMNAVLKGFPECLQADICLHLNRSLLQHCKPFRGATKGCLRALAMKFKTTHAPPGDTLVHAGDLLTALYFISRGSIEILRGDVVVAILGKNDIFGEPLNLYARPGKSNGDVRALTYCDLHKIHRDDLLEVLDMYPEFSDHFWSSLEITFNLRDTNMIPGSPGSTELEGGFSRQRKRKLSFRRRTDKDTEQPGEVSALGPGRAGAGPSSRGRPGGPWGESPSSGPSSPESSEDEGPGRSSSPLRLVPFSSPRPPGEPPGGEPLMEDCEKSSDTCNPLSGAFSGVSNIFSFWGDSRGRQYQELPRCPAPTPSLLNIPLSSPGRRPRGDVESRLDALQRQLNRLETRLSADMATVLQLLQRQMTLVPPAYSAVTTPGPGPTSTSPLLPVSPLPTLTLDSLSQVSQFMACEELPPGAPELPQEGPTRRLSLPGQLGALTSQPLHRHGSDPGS
With `COc1ccc(-c2cn(-c3ccc(C)c(Cl)c3)c(=S)[nH]2)cc1OC` the “hERG current change (%, negative = inhibition) at 10uM” value was 21.8%.
With `COc1ccc(-c2cnc(NCc3cc4c(cc3[N+](=O)[O-])OCO4)n2C)cc1` the “hERG current change (%, negative = inhibition) at 10uM” value was -48.4%.
`COc1cccc(Cn2c(=S)[nH]c3ccc(N4CCOCC4)cc3c2=O)c1` was tested, and the “hERG current change (%, negative = inhibition) at 10uM” value was -8.19%.
With `O=C(CNC(=O)c1cccc(F)c1)OCc1cc(=O)n2cc(Br)ccc2n1` the “hERG current change (%, negative = inhibition) at 10uM” value was -9.66%.
In the case of `Cc1cc(Cl)c2oc(C(=O)N(C)C3CCOC3)c(C)c2c1` (stereo not shown), the “hERG current change (%, negative = inhibition) at 10uM” value is reported as -2.84%.
With `COC(=O)c1ccc(C2/C(=C(\O)c3ccc4c(c3)OCCO4)C(=O)C(=O)N2CCCN2CCOCC2)cc1` (stereo not shown) the “hERG current change (%, negative = inhibition) at 10uM” value was 20.3%.
With `C[C@H](NC(=O)c1ccccc1Cl)C(=O)OC(C(=O)Nc1cc(C(F)(F)F)ccc1Cl)c1ccccc1` (stereo partly shown) the “hERG current change (%, negative = inhibition) at 10uM” value was 10.1%.
`CCCSc1nsc(NC(=O)Nc2ccc(F)cc2F)n1` was tested, and the “hERG current change (%, negative = inhibition) at 10uM” value was 16%.
In the case of `CN(CC(=O)Nc1c(Cl)cccc1Cl)C(=O)CNC(=O)c1ccco1`, the “hERG current change (%, negative = inhibition) at 10uM” value is reported as 7.01%.
`CCOc1ccc(NC(=O)c2ccc(-n3cccn3)nc2)cc1` was tested, and the “hERG current change (%, negative = inhibition) at 10uM” value was 18.7%.
For `COc1ccc(/C=C2\N=C(c3ccc(C)cc3)OC2=O)cc1`, the “hERG current change (%, negative = inhibition) at 10uM” value was 16.7%.
`CC1(C(=O)NCCCNc2ncc(C(F)(F)F)cc2Cl)C=CCN1C(=O)c1ccccc1` (stereo not shown) was tested, and the “hERG current change (%, negative = inhibition) at 10uM” value was -56.4%.
In the case of `Cc1nn(C2CCOC(C)(C)C2)c2c1C(c1ccc3c(c1)OCO3)SCC(=O)N2` (stereo not shown), the “hERG current change (%, negative = inhibition) at 10uM” value is reported as -6.19%.
For `CCOC(=O)C(C)Sc1nc2c(c(=O)[nH]c(=O)n2C)n1Cc1ccc(Cl)cc1` (stereo not shown), the “hERG current change (%, negative = inhibition) at 10uM” value was -75%.
For `COc1ccc(NC(=O)CC(C)n2ccnc2)cc1` (stereo not shown), the “hERG current change (%, negative = inhibition) at 10uM” value was 18.4%.
In the case of `O=C(Cc1cccs1)Nc1nnc(SCC(=O)NC2CCCCC2)s1`, the “hERG current change (%, negative = inhibition) at 10uM” value is reported as 7.84%.
For `C#CCOCCOCCOCCNc1nc(N2CCN(C(=O)C([C@@H](C)CC)n3cc(C(N)CC(C)C)nn3)CC2)nc(N2CCN(C(=O)[C@H](CCC(=O)O)n3cc(C(N)CC(C)C)nn3)CC2)n1.Cl` (stereo partly shown), the “hERG current change (%, negative = inhibition) at 10uM” value was 17.3%.
`Nc1ccn(CC(=O)NCCCc2ccccc2)c(=O)n1` was tested, and the “hERG current change (%, negative = inhibition) at 10uM” value was 4.9%.
For `COC(=O)CC1C(=O)NCCN1C(=O)OC(C)(C)C` (stereo not shown), the “hERG current change (%, negative = inhibition) at 10uM” value was 11.5%.
`Cc1cc2c(nc1C)CCCN2C[C@@H](C)O/N=C1/[C@H]2CCn3c(=O)n(-c4ccccc4)c(=O)n3[C@H]2[C@H](O)[C@@H]2O[C@H]12` was tested, and the “hERG current change (%, negative = inhibition) at 10uM” value was -32.9%.
In the case of `O=C1C2CC=C(Cl)CC2C(=O)N1CC1OCCc2ccccc21` (stereo not shown), the “hERG current change (%, negative = inhibition) at 10uM” value is reported as -9.17%.
In the case of `COc1ccccc1CN1CCCC(C(=O)c2ccccc2OC)C1` (stereo not shown), the “hERG current change (%, negative = inhibition) at 10uM” value is reported as -47.2%.
